Experimental data as given in ChEMBL document CHEMBL4888484, “Replenishing the malaria drug discovery pipeline: Screening and hit evaluation of the MMV Hit Generation Library 1 (HGL1) against asexual blood stage Plasmodium falciparum ,using a nano luciferase reporter read-out” (2022).
The whole screen tested about 150,000 compounds, of which about 540 (0.36%) showed an effect of 50% or more. The list shows a part of the results.

tested on: Plasmodium falciparum; test: Primary screen in NF54 nanoGlo assay, in single point, at 2uM, 72h; a lower Z score goes with more inhibition; assay type: functional, Erythrocyte; settings: timepoint 72 hour

Row | SMILES | % Inhibition | Z score
1 | O=C1c2ccccc2C(=O)C1(O)c1c[nH]c2ccccc12 | -11% | 1.7
2 | C=C(C)CNC(=O)NCC(=O)Nc1cc(Br)ccc1C | 6% | -0.74
3 | CCCCn1nc(C2CC2)nc1CCN1CCN(C)CC1 | -7% | 1.39
4 | COc1cc2ccccc2cc1C(=O)N1CC(=O)Nc2ccccc21 | 1% | -0.19
5 | O=C(CCn1cnc2cc(-c3noc(-c4cncc(Br)c4)n3)ccc21)N1CCCCC1 | -11% | 1.38
6 | Cc1cc(-c2cccc(C(=O)N(C)C[C@H]3CCCCN3C)c2)cc(C)c1O | -16% | 2.49
7 | CCC(C)NC(=O)C1CC(C)N(Cc2nc(-c3ccc(Cl)cc3)no2)C2CCCCC12 (stereo not drawn) | -9% | 1.74
8 | Cc1cc(C)c(C(=O)N2CCC(CC(=O)NCc3ccc4c(c3)OCO4)CC2)[nH]1 | -13% | 1.14
9 | COc1ccccc1C(=O)N1CCN(c2ccc(-c3nc(C)cs3)cn2)CC1 | -9% | 1.68
10 | Cc1nc2ccccc2n1CCNCc1ccco1 | 12% | -1.35
11 | Cc1cc(Nc2cnn(C3CCCC3)c2C)nc(C)n1 | -16% | 1.79
12 | O=C(NC1CCCCC1)[C@H](O)[C@@H](O)C(=O)NC1CCCCC1 | -8% | 1.07
13 | O=C(CN1CCc2[nH]c3ccccc3c(=O)c2C1)NCc1ccc2c(c1)OCO2 | -11% | 1.46
14 | CCNC(=O)N1CCN(c2nc3ccccc3c3nnc(-c4ccco4)n23)CC1 | -2% | 0.37
15 | CCN1CC2(CCN(c3cnccn3)CC2)C[C@@H](c2ccccc2)C1=O | -8% | 1.04
16 | CN(C)c1ccncc1CNCc1ccc(Cl)cc1Cl | 6% | -0.88
17 | O=C(O)C[C@H]1CCCN(c2nc(C3CC3)nc3[nH]ccc23)CC1 | -1% | 0.13
18 | C1CCC(CCc2nnc3n2CCOC3)CC1 | -6% | 1.02
19 | COC(=O)C[C@H](NC(=O)Nc1ccc(F)cc1)C(=O)OC | -9% | 1.2
20 | O=C(Nc1ccc(F)cc1)C1=C(Nc2ccccc2)c2ccccc2S1(=O)=O | 2% | -0.23
21 | CCc1csc(CCNC(=O)CCc2c(C)nc(O)nc2C)n1 | 2% | -0.51
22 | CC(C)c1csc(CN(CCCn2ccnc2)Cc2cccnc2)n1 | -1% | 0.08
23 | CCOc1ncccc1-c1c[nH]c(C)n1 | -11% | 2.06
24 | CCOc1ccccc1NC(=O)c1cc2nccc(-c3ccc(F)cc3)n2n1 | -1% | 0.09
